In all, about 110,000 compounds were measured (“z-score”: median about -0.1, highest 2% from about 2 on). The list shows a part of the results.
Target: Metabotropic glutamate receptor 8 (Rattus norvegicus) (UniProt P70579)
Experiment: mGluR8 Gi/Go-coupled signaling modulation – cell-based, rat, thallium flux, HTS, primary screen (AID 488969)
Settings: HEK293 rat mGluR8, GIRK (G protein-gated inwardly rectifying potassium channel) thallium flux, FluoZin2; at 10 µM; stronger effect = higher value; submaximal glutamate (EC20) added with thallium

Chain of UniProt P70579 (P70579 whole entry, looked up): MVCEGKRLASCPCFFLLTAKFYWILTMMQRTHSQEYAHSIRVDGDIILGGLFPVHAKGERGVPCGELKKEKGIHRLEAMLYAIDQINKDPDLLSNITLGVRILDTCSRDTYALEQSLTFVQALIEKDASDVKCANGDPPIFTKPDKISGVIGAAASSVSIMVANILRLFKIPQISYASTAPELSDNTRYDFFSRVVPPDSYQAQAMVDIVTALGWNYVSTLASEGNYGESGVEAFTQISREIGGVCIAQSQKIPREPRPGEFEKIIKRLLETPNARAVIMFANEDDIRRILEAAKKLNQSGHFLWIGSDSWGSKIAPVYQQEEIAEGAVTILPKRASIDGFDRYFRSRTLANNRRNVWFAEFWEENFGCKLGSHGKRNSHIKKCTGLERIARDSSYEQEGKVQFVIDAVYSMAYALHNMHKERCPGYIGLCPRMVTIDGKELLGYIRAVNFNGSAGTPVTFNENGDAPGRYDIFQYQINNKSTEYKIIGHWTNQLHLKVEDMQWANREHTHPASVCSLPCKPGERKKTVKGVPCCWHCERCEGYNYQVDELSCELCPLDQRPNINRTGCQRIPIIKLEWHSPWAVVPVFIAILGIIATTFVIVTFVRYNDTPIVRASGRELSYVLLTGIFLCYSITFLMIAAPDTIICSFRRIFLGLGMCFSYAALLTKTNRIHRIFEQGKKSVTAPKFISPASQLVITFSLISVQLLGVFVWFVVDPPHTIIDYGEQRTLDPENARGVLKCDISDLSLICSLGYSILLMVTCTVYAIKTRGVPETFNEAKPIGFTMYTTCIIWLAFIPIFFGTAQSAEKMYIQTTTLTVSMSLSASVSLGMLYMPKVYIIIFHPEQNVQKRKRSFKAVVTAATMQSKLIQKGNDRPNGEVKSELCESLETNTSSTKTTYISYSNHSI

Structure (SMILES) | z-score
OCCNc1ncnc2c1ncn2Cc1ccccc1 | -0.662
CCc1ccc(S(=O)(=O)NCCc2csc(-c3cccnc3)n2)s1 | -0.459
Cc1ccc(SCC(=O)NCCCN2CCOCC2)cc1 | -0.175
CCC(=O)Nc1c(-c2ccc(OC)cc2)c(=O)c2ccccc2n1C | 2.76
O=C1c2cc3ccccc3c(-c3ccccc3)c2C(=O)N1c1ccccn1 | -0.0793
Cc1ccnc(NS(=O)(=O)Cc2ccccc2)c1 | 0.201
Cc1ccccc1OCC(=O)OC1CCN(C)CC1 | 0.459
CCN1CCN(CCNC(=O)C2CCN(Cc3nc(-c4ccc(Cl)cc4)oc3C)CC2)CC1 | 0.0923
COc1ccccc1-n1c(SCC(N)=O)nc2c(c1=O)SCC2 | -0.2
O=S(=O)(Nc1ccn(-c2ccccc2)n1)c1ccc(Br)cc1 | -0.000107
c1ccc(C2c3c(ccc4ccccc34)Oc3ncn4nc(-c5ccco5)nc4c32)cc1 (stereo unspecified) | -0.0796
Cc1nnc(N2CCOCC2)c2nn(-c3cccc(Cl)c3)c(C)c12 | -0.883
Cc1ccccc1N/C=C/C(=C(C#N)C#N)N(C)C | -0.141
COc1ccccc1OCc1nc(C#N)c(N2CC(C)CC(C)C2)o1 (stereo unspecified) | -0.0217
Clc1cccc(N/N=C/c2ccc(N3CCOCC3)cc2)c1 | -0.176
COc1ccc(-n2nnnc2SCC(=O)Nc2ccc3c(c2)OCCO3)cc1OC | 0.861
O=C(Nc1ccc(Cl)cc1)N1CCSc2ccccc21 | -0.00414
CCOc1ccccc1NC(=O)CCC(=O)O | -0.336
COC(=O)c1ccc(N2C(=O)CC(N(C)Cc3ccccc3)C2=O)cc1 (stereo unspecified) | 0.205

Structure (SMILES) | z-score
CC(C)CCNC(=O)NC(=O)COC(=O)/C=C/c1cnc2ccccc2n1 | -0.278
COC(=O)c1cc(C#N)c(NCc2ccccc2)nc1C | -0.361
O=C(Nc1nccs1)C1CCCN1S(=O)(=O)c1cccc2cccnc12 (stereo unspecified) | 0.0342
Cc1nnc2c(Oc3ccccc3)nc3ccccc3n12 | 0.725
COc1ccc(-n2ncc3c(N4CCc5ccccc54)ncnc32)cc1 | -0.0249
CCOC(=O)N1CCN(C(=O)c2cccc(OC)c2O)CC1 | -0.108
Cc1ccccc1CSc1n[nH]c(NS(=O)(=O)c2ccccc2)n1 | -0.232
COc1ccc(CCN(C)C(=O)CN2C(=O)c3ccccc3S2(=O)=O)cc1OC | -0.354
CCOC(=O)c1sc(NC(=O)c2c(OC)cccc2OC)nc1C | -0.0301
CCCC(=O)c1cc(F)c(N2CCN(S(=O)(=O)c3ccccc3)CC2)cc1C | 1.1
CCCc1cc(C(=O)Cc2nc3ccccc3s2)c(O)cc1O | -0.268
Cc1ccc2cccc(N=Cc3c(C)[nH]n(-c4ccccc4)c3=O)c2n1 | 0.282
N/C(Cc1ccc(Cl)cc1)=N\OC(=O)Cc1ccc([N+](=O)[O-])cc1 | -0.0327
CCCCNC(=O)c1ccccc1Cl | -0.135
CCC(C)[C@H](Nc1nc(-c2ccccc2)nc2c1oc1ccccc12)C(=O)O (stereo partly specified) | -0.972
CC1CCN(Cc2ccc(NC(=O)CC3Oc4ccccc4NC3=O)cc2)CC1 (stereo unspecified) | -0.528
COC(=O)c1sc(=S)n(-c2ccc(Cl)cc2)c1C | -1.6
CCOC(=O)c1cnn(CCOC(=O)c2cccs2)c1NC(=O)c1cccs1 | 0.303
COc1ccc(OCC(=O)OCC(=O)NCc2ccco2)cc1 | 0.117

Structure (SMILES) | z-score
CC(NC(=O)CN1CCC(C(N)=O)CC1)c1ccccc1 (stereo unspecified) | -0.0375
COc1ccc(NC(C)=O)cc1NC(=O)CSc1nc2ncccc2[nH]1 | 0.109
Cc1cc(NC(=O)c2ccco2)ncc1NC(=O)CCc1ccccc1 | -0.188
O=C(c1cc2cc(Cl)ccc2oc1=O)N1CCCC1 | 0.142
CCOC(=O)CSc1nccc(N(C)C)c1C#N | 0.144
COc1ccccc1NC(=S)NCc1cccs1 | -0.127
O=C(OCC(=O)N1CCN(c2ccccc2)CC1)c1cccc(Cl)c1 | 0.0206
Cc1noc2ncnc(Oc3ccc(F)cc3)c12 | 0.0343
CCCCn1c(-c2ccccc2)cnc1SCC(=O)NCCc1ccc(OC)c(OC)c1 | -0.549
CC12CCC(C(=O)N3CCN(C(c4ccccc4)c4ccccc4)CC3)(OC1=O)C2(C)C (stereo unspecified) | -0.194
c1ccc(Cc2nnc3sc(-c4ccccn4)nn23)cc1 | -0.936
CC(C)c1ccccc1NC(=S)NC(C)c1ccccc1 (stereo unspecified) | 0.112
COc1cccc(N(C(=O)Cn2nnc(-c3cccs3)n2)C(C(=O)NC(C)C)c2ccc(C)o2)c1 (stereo unspecified) | 1.38
CCOC(=O)C1=C(C)Nc2sc(C(=O)c3ccc(OC)cc3)c(N)c2C1c1ccc(C(=O)OC)cc1 (stereo unspecified) | -0.146
CC(=O)c1ccc(N(C(=O)Cn2nnc(-c3ccccc3)n2)C(C(=O)NC2CCCCC2)c2ccccn2)cc1 (stereo unspecified) | -0.135
Cc1csc(NC(=O)/C=C/c2ccc(C)o2)n1 | 0.0991
O=C(O)c1cc(NCc2ccccc2)ccc1N1CCOCC1 | -0.122
Nc1c(C(=O)c2ccccc2)sc2c1c(=O)[nH]c(=O)n2-c1ccccc1 | -0.584

From PubChem BioAssay AID488969 (Vanderbilt High Throughput Screening Facility, 2010)
